# Assay results: PubChem BioAssay AID1259400 (National Center for Advancing Translational Sciences (NCATS), 2018)
# Among all 350,000 compounds or so, about 2,100 (0.6%) were called active. Inconclusive means that the source gave no clear call. Such entries were picked first, then a sample of the others.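 Rule for the calls: active = activity change of -60% or lower, but not beyond a set lower limit; inconclusive = change between -60% and -40%, or beyond the set limit; inactive = change above -40%.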
# Molecular target: Relaxin receptor 1 (Homo sapiens) (UniProt Q9HBX9)
# Assay: qHTS Assay for Antagonists of the Relaxin Receptor RXFP1
# Settings: HEK293-RXFP1, relaxin-stimulated cAMP HTRF, 30 min; at 57.5 µM; active compounds read low
# % is set by controls: 0 for no effect and ±100 for the full control effect.
# UniProt Q9HBX9, sequence (Q9HBX9 whole entry, looked up): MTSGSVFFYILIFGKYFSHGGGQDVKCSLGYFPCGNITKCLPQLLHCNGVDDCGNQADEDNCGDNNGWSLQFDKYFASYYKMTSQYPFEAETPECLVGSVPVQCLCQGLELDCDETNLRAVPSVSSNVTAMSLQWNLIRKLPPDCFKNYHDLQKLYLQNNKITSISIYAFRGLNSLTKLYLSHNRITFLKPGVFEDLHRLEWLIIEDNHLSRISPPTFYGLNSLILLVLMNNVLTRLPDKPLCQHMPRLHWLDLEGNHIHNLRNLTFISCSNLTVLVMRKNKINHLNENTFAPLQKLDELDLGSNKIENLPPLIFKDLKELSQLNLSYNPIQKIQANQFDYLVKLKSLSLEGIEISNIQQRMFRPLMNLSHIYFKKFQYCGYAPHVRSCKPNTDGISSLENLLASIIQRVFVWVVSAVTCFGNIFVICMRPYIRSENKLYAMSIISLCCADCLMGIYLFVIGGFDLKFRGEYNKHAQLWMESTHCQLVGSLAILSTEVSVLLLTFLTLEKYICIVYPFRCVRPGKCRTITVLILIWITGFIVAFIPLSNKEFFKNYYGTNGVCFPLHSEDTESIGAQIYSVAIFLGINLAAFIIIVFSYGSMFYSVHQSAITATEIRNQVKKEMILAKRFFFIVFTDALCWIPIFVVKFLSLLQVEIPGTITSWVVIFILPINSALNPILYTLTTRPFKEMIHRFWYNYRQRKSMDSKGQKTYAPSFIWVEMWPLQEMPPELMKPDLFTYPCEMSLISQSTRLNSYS
row,Compound,"activity change, negative = inhibition"
1,CN(C)/C=C(/C(=O)c1ccc(Cl)cc1)S(=O)(=O)c1ccc(Cl)cc1,inactive: 8.42%
2,c1ccc(C(O[C@H]2CCCN(CCc3ccc4c(c3)OCO4)C2)c2ccccc2)cc1,active: -61.6%
3,O=C(Nc1ccc(F)cc1Cl)C1CCN(c2ncnc3c2nc2n3CCCCC2)CC1,inactive: -6.82%
4,O=C(CCC1CCCCC1)Nc1ccc(C(=O)c2ccncc2)cc1,inconclusive: -40.7%
5,COC(=O)c1ccc(/C=C/C(=O)c2cccc(OC)c2)cc1,inconclusive: -43%
6,CCc1ccc(C(c2ccccc2)c2c[nH]c3ccc(C)cc23)s1 (configuration not stated),inconclusive: -42.3%
7,Cc1cc(C)c(C)c(S(=O)(=O)N2CCN(CC(=O)Nc3ccc([N+](=O)[O-])cc3)CC2)c1C,inactive: -2.49%
8,Clc1ccccc1CSc1nnc(-c2ccco2)c(-c2ccco2)n1,inconclusive: -41.7%
9,CCN(c1ccccc1)S(=O)(=O)c1ccc(Cl)c(NC(=O)CN(C)C2CCN(C)CC2)c1,inconclusive: -52.8%
10,Cc1ccccc1NC(=O)C(=O)NCC1(c2ccccc2)CCCC1,inconclusive: -41.8%
11,COc1ccc(-c2csc3nc(C)nc(N4CCC(C)CC4)c23)cc1OC,inconclusive: -54.5%
12,O=C(Nc1ccc(Br)c2ccccc12)c1ccc2ccccc2c1O,inactive: 1.47%
13,O=C1NC(=O)N(c2ccccc2)C1=O,inconclusive: -41.5%
14,C/C(=N\NC(=O)c1cc(O)ccc1O)c1cccc(NC(=O)c2ccc(Cl)cc2)c1,inconclusive: -55%
15,CCOC(=O)c1cc2c(=O)n3cccc(C)c3nc2n(CCCOC)c1=NC(=O)c1cccnc1,inactive: -3.3%
16,CC(=O)N1CCOc2ccc(S(=O)(=O)NCC3CCC(C(=O)Nc4ccc(C)cn4)CC3)cc21 (configuration not stated),inconclusive: -57.1%
17,CCOC(=O)C(NC(C)=O)C(=O)Nc1ccc(C(C)C)cc1 (configuration not stated),inconclusive: -47.5%
18,CCC/C=N/Nc1nc2ccccc2s1,active: -90.8%
19,COc1ccccc1-c1c(C)nn2c(N3CCN(c4ccc(F)cc4)CC3)cc(C)nc12,inactive: -7.39%
20,CC1(C)Cc2c(sc3c2C(=O)N(c2ccccc2)C2=NCCN23)CS1,inconclusive: -50.8%
21,O=C1CC(c2ccc(Br)cc2)c2c(ccc3ccccc23)N1 (configuration not stated),inconclusive: -49.3%
22,COc1cccc(C2=NN(C(=O)c3cccs3)C(O)(C(F)(F)F)C2)c1 (configuration not stated),inconclusive: -45.1%

row,Compound,"activity change, negative = inhibition"
1,O=C(CC1SC(N2CCCC2)=NC1=O)Nc1ccc(C(=O)NCc2ccc(F)cc2)cc1 (configuration not stated),inconclusive: -56.8%
2,CCN(c1cc(C)cc(C)c1)S(=O)(=O)c1nnc(NC(=O)c2ccccc2C)s1,inactive: -14%
3,Cc1ccc(S(=O)(=O)N(C)c2ccc(OCC(=O)OCc3cccc(Br)c3)cc2)cc1,inactive: -10.2%
4,Cc1c(Cl)cccc1Nc1ccccc1C(=O)O,inconclusive: -52.6%
5,Cc1ccc(C(C)(C)C)cc1S(=O)(=O)Nc1cccc(C(=O)N2CCN(c3ccccn3)CC2)c1,inconclusive: -47%
6,CCC1CCCCN1S(=O)(=O)c1ccc(C(=O)Nc2nnc(-c3cccs3)o2)cc1 (configuration not stated),active: -73%
7,CCCOc1ccc(C(=O)C(CCC(CNCC)C(=O)c2ccc(OCCC)cc2)CNCC)cc1 (configuration not stated),inconclusive: -50.2%
8,CCOc1cccc2cc(C(=O)Nc3cc(C)on3)c(=O)oc12,inactive: 20.2%
9,Cc1ccc(-c2nn(-c3ccccc3)cc2CSC(=N)N)cc1,inconclusive: -55.9%
10,CC(C)(C)C(=O)OCc1nc(-c2ccc(Cl)cc2)cs1,inconclusive: -40.7%
11,O=C(c1ccco1)N1N=C(c2cccs2)CC1c1ccccc1O (configuration not stated),inconclusive: -44.4%
12,CCc1ccc(CCOc2ccc(CC3SC(=O)NC3=O)cc2)nc1 (configuration not stated),inconclusive: -43.5%
13,COc1cc(/C=N/NC(=O)c2ccncc2)ccc1OCC(=O)Nc1ccccc1,active: -73.5%
14,CC(C)N(c1ccccc1)c1ccc(NC(=S)NCCN(C)C)cc1,inconclusive: -56.3%
15,CCCCN(C)CCCNC(=O)c1cn(CC)c2ccc(S(=O)(=O)N3CCc4ccccc4C3)cc2c1=O,inactive: -15.3%
16,CCc1cnc2c(c1SC(C(C)=O)C(=O)N(C)C)c(=O)n(C)c(=O)n2C (configuration not stated),inactive: -3.26%
17,CC(C)[C@H](NC(=O)[C@@H]1Cc2ccccc2CN1C(=O)OC(C)(C)C)C(=O)NC1CCCC1,active: -103%
18,Cc1cccn2cc(CNC(=O)CC3CCCC3)nc12,inactive: -3.33%
19,COc1ccc(C(C)NC(=O)Nc2ccc(C(C)=O)cc2)cc1OC (configuration not stated),inactive: -4.66%
20,CCOC(=O)c1c(NC(C)=O)c2c3c(sc2n1Cc1cc(C)ccc1C)CCCC3,inactive: 9.16%
21,CN(Cc1ccccc1)C(=O)c1ccccc1-c1ccccc1,inconclusive: -40.2%
22,O=C(CSc1nnc(-c2ccco2)c(-c2ccco2)n1)c1ccccc1,active: -96.8%

row,Compound,"activity change, negative = inhibition"
1,CC(C)[C@H](NC(=O)OC(C)(C)C)c1nnc(SCC(=O)Nc2ccc(Br)cc2)o1,inactive: 7.42%
2,O=C(Nc1nc2cc3c(cc2s1)OCCO3)C1CCCCC1,active: -68.1%
3,CC(=NNC(=S)N1CC2CCC(CC2)C1)c1cnccn1,inconclusive: -57.3%
4,COc1ccc(NC(=O)CS(=O)(=O)c2cn(CC(=O)N3CCOCC3)c3ccccc23)cc1,inconclusive: -48.6%
5,NC(=O)c1ccsc1NC(=O)COC(=O)Cc1cccc2ccccc12,inactive: -10.4%
6,FC(F)(F)c1ccc(-c2noc(-c3ccccc3Br)n2)cc1,inconclusive: -40.7%
7,COc1ccc(CC(=O)Nc2nc(C(C)(C)C)cs2)cc1,inconclusive: -47.5%
8,Fc1ccc(-c2csc(Nc3ccccn3)n2)c(F)c1,inconclusive: -43%
9,Cc1ccc2c(c1)nnn2C1CCN(C(=O)NCc2ccccc2)CC1,inconclusive: -53.8%
10,COc1ccccc1NC(=O)Cn1nnc(C(=O)NCCc2ccccc2)c1N,inconclusive: -42.8%
11,O=C(CN1c2ccccc2Sc2ccccc21)NNC(=S)Nc1ccc(Cl)cc1,inconclusive: -52.4%
12,O=C(COC(=O)c1cccc(Cl)c1)NC(=O)NCc1ccccc1,inconclusive: -54.7%
13,Cc1onc(-c2c(Cl)cccc2Cl)c1C(=O)N=C(N)N1CC(C)OC(C)C1 (configuration not stated),inconclusive: -53.8%
14,O=C(NCc1cccc(F)c1)c1ccc2nc(N3CCCCC3)sc2c1,inconclusive: -49.7%
15,CCOC(=O)Nc1c(C(=O)OC)[nH]c2cccc(OC)c12,inconclusive: -49.2%
16,C(=C\c1nc(N2CCCC2)c2ccccc2n1)/c1ccccc1,inconclusive: -50%
17,CCCCc1ccc(NS(=O)(=O)c2ccc(N3CCCCS3(=O)=O)cc2)cc1,inactive: -11%
18,O=C(COC(=O)c1ccc(Oc2ccccc2)cc1)Nc1nnc(-c2ccccc2)o1,active: -76.2%
19,Nc1cccc(-c2cn3cc(C(F)(F)F)cc(Cl)c3n2)c1,inactive: -2.31%
20,O=C(c1cnc(N2CCCCC2)c2ccccc12)N1CCN(c2ccc(Cl)cc2)CC1,inconclusive: -42.6%
21,COc1ccccc1N1CCN(CCCNC(=O)c2cnn(-c3ccc(C)c(C)c3)c2C2CCN(C(=O)OC(C)(C)C)CC2)CC1,inconclusive: -56.4%
22,N#CC(c1ccccc1)C(CC(=NO)c1ccccc1)c1ccccc1 (configuration not stated),active: -90.8%

row,Compound,"activity change, negative = inhibition"
1,NC(=O)N[C@@H](CCC(=O)O)C(=O)O,inactive: 8.25%
2,Cc1ccc(S(=O)(=O)c2c(C)cc(C)nc2N2CCCCC2)cc1,inconclusive: -44.9%
3,COc1ccc(OC)c(/C=C2\SC(=S)N(NS(=O)(=O)c3ccc(C)cc3)C2=O)c1,inconclusive: -50.7%
4,COc1ccc(OCc2n(CC(=O)OC3CC(C)CCC3C(C)C)c3ccccc3[n+]2C)cc1 (configuration not stated),inconclusive: -40.3%
5,Cc1c(Cc2ccc3c(c2)OCO3)sc(NC(=O)C(C)(C)C)c1C#N,inconclusive: -40.2%
6,Cc1cc(C)cc(NC(=O)CNC(c2ccccc2)c2ccccc2)c1,inactive: -11.2%
7,CCC1C(=O)NCCN1C(=O)c1cccc(OC2CCN(S(=O)(=O)N(C)C)CC2)c1 (configuration not stated),inconclusive: -53.9%
8,CCCOC(=O)c1ccc(NC(=O)Cc2cccs2)cc1,inactive: -10.8%
9,CCc1cc2cc(OC)c(OC)cc2c(Cc2ccccc2)n1,inconclusive: -44.8%
10,CCOC(=O)/C(=C\c1cccc(O)c1)c1nc2sc(C)c(C)c2c(=O)[nH]1,inconclusive: -49.1%
11,Cc1cc2c(NC(=O)Nc3ccc(F)cc3)cccc2nn1,inactive: -0.696%
12,CCC(C)NC(=O)c1cccc(OCc2c(C)noc2C)c1 (configuration not stated),inconclusive: -49.1%
13,COc1ccc(OC)c(-c2csc(NC(=O)CN3C(=O)C4CCCCC4C3=O)n2)c1 (configuration not stated),inconclusive: -50.9%
14,CSc1ccc(CCNC(=O)c2ccc(CS(=O)Cc3ccccc3Cl)o2)cc1 (configuration not stated),inconclusive: -53.7%
15,Cn1cc(CN2CCCC(C(=O)c3ccc(-c4ccccc4)c(F)c3)C2)cn1 (configuration not stated),inconclusive: -41.8%
16,C=CCN=c1scc(-c2ccccc2)n1/N=C/c1ccccn1,inconclusive: -56.9%
17,COc1cc(N)c2ncccc2c1Br,inconclusive: -45.3%
18,COc1ccc(NC(=O)C(C)Sc2cc(-c3ccccc3)nc(C)n2)cc1Cl (configuration not stated),inconclusive: -40.5%
19,Fc1ccccc1C1c2[nH]c3ccccc3c2CCN1Cc1ccoc1 (configuration not stated),inconclusive: -51.4%
20,Cc1cccc(C)c1OCc1nc2ccccc2[nH]1,inactive: 22.8%
21,Cc1ncsc1C(=O)N1N=C2/C(=C/c3ccccc3)CCCC2C1c1ccccc1 (configuration not stated),inactive: -9.51%
